This is an account of results in publication PMC4336329 (PLoS ONE, 2015).

Hit rate of the full screen: of about 310,000 compounds, about 14,000 (4.5%) showed an effect of 50% or more. The effect is printed as a negative number. The list shows a part of the results.
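Note: peak tail current of the secondary pulse compared with the same well before compound.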

This assay deals with human ether-à-go-go-related gene (hERG) potassium channel (human, UniProt Q12809). Briefly: primary screen, population patch clamp on CHO cells stably expressing hERG.
Sequence of human ether-à-go-go-related gene (hERG) potassium channel (Q12809 whole entry, looked up): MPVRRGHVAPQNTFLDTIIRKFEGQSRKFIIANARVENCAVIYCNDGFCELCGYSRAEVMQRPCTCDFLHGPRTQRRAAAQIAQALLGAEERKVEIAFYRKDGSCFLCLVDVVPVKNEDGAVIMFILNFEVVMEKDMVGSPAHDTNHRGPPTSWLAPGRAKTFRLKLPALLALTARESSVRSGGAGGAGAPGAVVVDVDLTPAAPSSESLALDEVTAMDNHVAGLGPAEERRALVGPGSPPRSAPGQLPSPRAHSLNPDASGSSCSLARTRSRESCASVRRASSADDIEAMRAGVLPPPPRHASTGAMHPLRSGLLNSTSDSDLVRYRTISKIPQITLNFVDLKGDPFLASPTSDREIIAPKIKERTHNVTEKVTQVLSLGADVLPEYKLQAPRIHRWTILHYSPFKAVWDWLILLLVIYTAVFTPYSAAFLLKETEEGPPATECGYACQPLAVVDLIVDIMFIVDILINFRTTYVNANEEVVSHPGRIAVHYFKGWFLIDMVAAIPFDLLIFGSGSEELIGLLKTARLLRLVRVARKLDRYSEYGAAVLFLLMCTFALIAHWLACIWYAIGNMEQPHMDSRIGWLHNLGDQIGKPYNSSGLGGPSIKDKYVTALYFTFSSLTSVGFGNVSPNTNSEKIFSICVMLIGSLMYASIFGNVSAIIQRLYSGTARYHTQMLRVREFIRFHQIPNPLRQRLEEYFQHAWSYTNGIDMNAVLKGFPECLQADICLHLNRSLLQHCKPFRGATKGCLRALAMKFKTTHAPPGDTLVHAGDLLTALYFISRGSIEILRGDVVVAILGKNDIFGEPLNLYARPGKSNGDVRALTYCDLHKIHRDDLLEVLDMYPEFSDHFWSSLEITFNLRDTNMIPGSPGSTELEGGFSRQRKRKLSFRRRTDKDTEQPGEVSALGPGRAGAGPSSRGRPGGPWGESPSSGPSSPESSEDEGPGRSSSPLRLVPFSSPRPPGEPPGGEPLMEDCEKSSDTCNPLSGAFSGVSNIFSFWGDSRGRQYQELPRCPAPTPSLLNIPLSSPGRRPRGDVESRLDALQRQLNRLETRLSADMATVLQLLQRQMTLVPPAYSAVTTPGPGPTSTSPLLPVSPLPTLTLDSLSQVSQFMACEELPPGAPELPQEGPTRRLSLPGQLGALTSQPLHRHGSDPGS
With `COCCCNC(=O)CN1C(=O)/C(=C/c2ccccc2)Sc2ccccc21`, the “hERG current change (%, negative = inhibition) at 10uM” value is given as -14.3%. To `O=C(NCc1ccccc1F)C(c1ccccc1)c1ccccc1` belongs 5.79%. As to `CCn1c(SCC(=O)Nc2nccc(C)n2)nc2ccccc21`, the “hERG current change (%, negative = inhibition) at 10uM” value is -0.289%. To `CCCn1cnnc1CNC(=O)C1CCC(=O)N(CCc2cccc(F)c2)C1` (stereo not shown) belongs 14.3%; to `Cc1ccc(NC(=O)c2cccnc2)cc1C`, 10.7%; to `O=C(Cc1ncc(C(F)(F)F)cc1Cl)Nc1cccc(Br)c1`, -1.28%. With `CC1(C)CC(=O)C(C=NCCN2CCN(CCCCS(=O)(=O)O)CC2)=C(O)C1`, the “hERG current change (%, negative = inhibition) at 10uM” value is on record as 9.85%. `Cc1ccc(S(=O)(=O)N2CCC(=O)N(CCOC(=O)NCc3ccccc3)CC2)cc1`: the “hERG current change (%, negative = inhibition) at 10uM” value was -39.3%. With `c1cnc(N2CCN(c3nc4ccccc4n4cnnc34)CC2)nc1` the figure was -27.6%.

With `O=c1c(C(c2ccc(O)cc2)c2c(O)nc3n(c2=O)CCS3)c(O)nc2n1CCS2`, the “hERG current change (%, negative = inhibition) at 10uM” value was found to be 3.65%.

Take `CC(C)=CC(=O)Nc1nnc(-c2cccnc2)s1`: the “hERG current change (%, negative = inhibition) at 10uM” value was found to be 24.6%. To `O=C1CC(c2ccccc2)CC(O)=C1C=NCCN1CCOCC1` (stereo not shown) belongs -0.797%; to `COc1cccc(CNC(=O)c2nnn(CC(=O)Nc3ccc(C)c(C)c3)c2N)c1`, 1.8%; to `COc1ccc(S(=O)(=O)NCC2CCCN(C(=O)c3occc3C)C2)cc1` (stereo not shown), 27.1%.

For the compound `Cn1c(Br)nc2c1c(=O)n(CC(O)COc1ccccc1)c(=O)n2C` (stereo not shown), the “hERG current change (%, negative = inhibition) at 10uM” value is reported as -1.54%. Turning to `COc1ccc2c(c1)C(NC(C)=O)C(=O)N2C` (stereo not shown), the “hERG current change (%, negative = inhibition) at 10uM” value is -5.38%. With `CCO/C(=C/c1sc2ccc(OC)cc2[n+]1CCCS(=O)(=O)[O-])CC` the figure was 0.625%; with `CC(C)C(=O)O/N=C1\CCS(=O)(=O)c2sccc21`, -12%. To `Cc1cc(C)n(C(=O)CN2C(=O)c3ccccc3C2=O)n1` belongs 8.39%; to `Cc1ccc(C(=O)NC(=S)NNC(=O)c2cccc([N+](=O)[O-])c2)cc1`, 31.3%; to `COc1ccc(NC(=O)CN2C(=O)c3cccc4cccc2c34)cc1OC`, 24.3%. To `CCOC(=O)CCC(NC(=O)CCCCCCCC(=O)NC(CCC(=O)OCC)C(=O)OCC)C(=O)OCC` (stereo not shown) belongs -10.1%.

With `CCOC(=O)C1CCCN(C(=O)CCc2ccccc2)C1` (stereo not shown), the “hERG current change (%, negative = inhibition) at 10uM” value is reported as -11.1%.

As to `CCN(C(=O)Cn1c(=O)oc2ccccc21)C1CCS(=O)(=O)C1` (stereo not shown), the “hERG current change (%, negative = inhibition) at 10uM” value was -5.12%. With `CN1CC(=O)N2Cc3[nH]c4ccccc4c3C[C@H]2C1=O` the figure was 12.1%; with `CN(C)C(=O)Cn1cnc2c(cnn2-c2ccccc2Cl)c1=O`, -4.95%. With `CSc1cc(-c2ccccc2)n(C)c(=O)c1C#N`, the “hERG current change (%, negative = inhibition) at 10uM” value is recorded as 17.9%. With `COc1ccc(S(=O)(=O)N2CCSCC2)cc1` the figure was 3.45%. With `COc1ccc(CNC(=S)Nc2ccc(S(N)(=O)=O)cc2)cc1` the figure was 22.1%; with `CN(C)c1ccc(/C=N/N(Cc2ccccc2)c2ccccc2)cc1`, 3.54%; with `CCOC(=O)N1CCN(C(=O)CSc2nnc(-c3ccc(C(C)(C)C)cc3)o2)CC1`, 11.1%. With `CS(=O)(=O)N(CC(=O)N1CCc2ccccc2C1)c1ccccc1Br` the figure was 10.4%.

For the compound `CC(CCc1ccccc1)NC(=O)COC(=O)C1=COCCO1` (stereo not shown), the “hERG current change (%, negative = inhibition) at 10uM” value came to 8.06%. To `COc1cc2ccccc2cc1C(=O)Nc1ccc(N2CCOCC2)cc1` belongs 15.1%; to `Cc1nc(/N=C(\N)N(C)C)[nH]c(=O)c1C`, 13.8%; to `COc1ccccc1CN(C)C(=O)CN1CCN(CC(=O)Nc2ccccc2Cl)CC1`, -28.7%. With `CCN(Cc1ccncc1)C(=O)c1cc(COc2c(C)cccc2C)on1` the figure was -75.3%. To `CC(=O)Nc1cccc(NC(=O)C(F)(F)F)c1` belongs 21.2%; to `Cn1ncc(Cl)c1C(=O)N1CCN(c2ccc(Cl)c(Cl)c2)CC1`, -41.5%; to `O=C1c2ccccc2C(=O)N1CSc1nnc(Nc2ccccc2)s1`, 18.9%. For `CCN(CC)CCC(c1ccc(N(C)C)cc1)c1c(OC)cc(OC)c2ccc(=O)oc12` (stereo not shown), the “hERG current change (%, negative = inhibition) at 10uM” value is -11.7%. For `CC1(C)Oc2ccc3ccc(=O)oc3c2-c2cn[nH]c21`, the “hERG current change (%, negative = inhibition) at 10uM” value came to 11.6%. To `CN(C)CCn1c2ccccc2c2nc3ccc([N+](=O)[O-])cc3cc21` belongs 5.71%; to `COc1ccc(C)cc1S(=O)(=O)N1CCc2ccccc2C1`, -10.1%. As to `O=S(=O)(c1ccc(N2CCOCC2)cc1)N1CCOCC1`, the “hERG current change (%, negative = inhibition) at 10uM” value is given as -5.96%.

Take `CCOc1ccc(C(=O)Nc2ccc(N3CCCC3)cc2)cc1`: the “hERG current change (%, negative = inhibition) at 10uM” value amounted to 3.89%.

Consider `CC(C)N(C(=O)NC(=O)Nc1ccc(S(=O)(=O)N2CCCC2)cc1)S(C)(=O)=O`, for which the “hERG current change (%, negative = inhibition) at 10uM” value is 13.9%. With `O=S(=O)(c1ccc(F)c(F)c1)N1CCN(Cc2ccc3c(c2)OCO3)CC1` the figure was -51.4%; with `O=C(Cc1cccs1)NCCc1ccc(Cl)cc1`, -37.2%; with `Cc1cc(Oc2ccccc2)nc(SCC(N)=O)n1`, -1.34%. To `COc1cc(/C=C2\CCCc3c2nc2ccccc2c3C(=O)O)cc([N+](=O)[O-])c1O` belongs 10.3%; to `CC1CCN(C(=O)c2[nH]cnc2C(=O)NCc2ccccc2)CC1`, 8.61%; to `COc1cccc(C(=O)Nc2ccc(NC(=O)C3CC3)nc2)c1`, 12.8%. To `COc1ccccc1CCNC(=O)CSc1nc(=O)[nH]c2c1CCC2` belongs -40.8%; to `O=C(CSCc1ccccc1)Nc1ccc(F)c(F)c1`, -3.2%. Turning to `N#Cc1c(-c2ccccc2)nc(SCC(=O)Nc2ccccc2F)[nH]c1=O`, the “hERG current change (%, negative = inhibition) at 10uM” value was 19.7%. Consider `CC(=O)NC(CC(=O)O)C(=O)O` (stereo not shown), for which the “hERG current change (%, negative = inhibition) at 10uM” value is listed as 20.5%. With `COc1cc(C(=S)N2CCOCC2)cc(OC)c1OS(=O)(=O)c1ccc(C)cc1` the figure was 4.13%. To `CCc1nnc(NC(=O)[C@@H](NC(=O)c2cccc(C)c2)C(C)C)s1` belongs 5.47%; to `N#CC1(NC(=O)Cn2cc(C(F)(F)F)ccc2=O)CCCC1`, -37.2%; to `CC(=O)OC(C(=O)NCc1ccco1)c1ccncc1` (stereo not shown), 12.5%. With `CC(C)c1ccc(NC(=O)CCNS(=O)(=O)c2cccc3nonc23)cc1` the figure was -8.88%. As for `CCn1c(N)[n+](CC(=O)Nc2ccc(SC(F)F)cc2)c2ccccc21.[Cl-]`, the “hERG current change (%, negative = inhibition) at 10uM” value is listed as -78.4%. To `O=C(NCc1ccco1)c1cnn2c1NC(c1ccc(Br)cc1)CC2C(F)(F)F` (stereo not shown) belongs 0.369%; to `CCC(=O)Nc1ccc2c(c1)ncn2-c1ccc(OC)cc1`, -9.24%; to `CCC(CC)NCCOC(=O)c1ccc([N+](=O)[O-])cc1`, -44%.

As to `Cc1onc(C(=O)Nc2sc3c(c2C#N)CCCC3)c1[N+](=O)[O-]`, the “hERG current change (%, negative = inhibition) at 10uM” value is 19.2%. With `COc1ccc(/C=C/c2ccncc2)cc1OC` the figure was -5.59%. With `CCOc1cccc(-c2c(C(=O)N/N=C/c3ccc(C)s3)nnn2-c2nonc2N)c1` the figure was 25.1%; with `CCn1nnnc1-c1ccc(OC)c(S(=O)(=O)NCc2ccccc2)c1`, -4.08%. With `CSCCC1NC(=O)N(CC(=O)Nc2ccc(-c3ccccc3)cc2)C1=O` (stereo not shown) the figure was 2.38%; with `Nc1ccc2nc3c(c(Cl)c2c1)CCCC3`, -22.7%; with `O=C(CSCCO)Nc1ccc([N+](=O)[O-])cc1`, 7.88%.

Regarding `COc1ccc(-c2cc(C(F)(F)F)n3nc(C(=O)NCc4ccco4)c(Cl)c3n2)cc1`, the “hERG current change (%, negative = inhibition) at 10uM” value is 11.9%. To `Cn1c(=O)c2ncn(CC(=O)O)c2n(C)c1=O` belongs 19.3%. With `CCCCn1c(N)c(N(CC(C)C)C(=O)c2cccc(S(=O)(=O)N3CC(C)OC(C)C3)c2)c(=O)[nH]c1=O` (stereo not shown) the figure was 21.6%; with `Cc1ccc(CN2CCC(n3nccc3NC(=O)CCOc3ccccc3)CC2)o1`, -20.7%. To `COc1ccc(CNCc2ccccc2C(F)(F)F)cc1.O=C(O)C(=O)O` belongs -27.9%. `CCC(C)NCCOCCOc1ccc(Cl)cc1Br.O=C(O)C(=O)O` (stereo not shown): the “hERG current change (%, negative = inhibition) at 10uM” value was -51.1%.

`CCOc1c(/C=C(\C#N)C(N)=O)c2ccccc2n1CC`: the “hERG current change (%, negative = inhibition) at 10uM” value is listed as -18.3%. To `COCc1cc(C)nc2sc(C(=O)Nc3ccc(OC)cc3)c(N)c12` belongs 12.5%. With `O=C1Nc2ccc(Br)cc2C1=Nc1cccnc1` the figure was 2.71%; with `CCn1cc(C(=O)NCCN(CC(C)C)CC(C)C)c(=O)c2cc(S(=O)(=O)N3CCOCC3)ccc21`, -14.1%; with `CCCCCCCC(=O)N/N=C(\C)c1cccnc1`, -21.9%.

For `COc1ccccc1N1CCN(C(c2cccs2)C(C)NC(=O)C(=O)N2CCCCC2)CC1` (stereo not shown), the “hERG current change (%, negative = inhibition) at 10uM” value is reported as -3.38%. For the compound `COc1ccc(C(=O)/C=C/c2ccsc2)cc1CSCC(=O)O`, the “hERG current change (%, negative = inhibition) at 10uM” value is 10.7%. To `COc1ccc(CN2CCNC(=O)C2CC(=O)N(C)CCCN2CCOCC2)cc1C` (stereo not shown) belongs 11.9%; to `NS(=O)(=O)c1ccc(NC(=O)COC(=O)COc2ccc(Cl)cc2)cc1`, 15.9%.

For the compound `Cc1ccc(NC(=O)c2c(C(=O)Nc3ccccc3)sc3nc(C)cc(=O)n23)cc1`, the “hERG current change (%, negative = inhibition) at 10uM” value came out at 42.2%. Take `COCCNC(=O)[C@H]1N2C(=O)c3c(ccc(OC)c3OC)C2SC1(C)C` (stereo partly shown): the “hERG current change (%, negative = inhibition) at 10uM” value turned out to be 12.9%. As for `O=C(NCCc1ccccc1)C1CC(=O)N(CCc2ccccc2)C1` (stereo not shown), the “hERG current change (%, negative = inhibition) at 10uM” value worked out at 6.57%.
